Source: the RNAGym collection of RNA variant scans (doi:10.1093/nar/gkz1192)
The source gives no read counts; variants with many changes may rest on few reads.

B1: CPEB3 Ribozyme (parent)
chain: UAACAGGGGGCCACAGCAGAAGCGUUCACGUCGCAGCCCCUGUCAGAUUCUGGUGAAUCUGCGAAUUCUGCUGUAUAUCUC

Variants of: B1
Experiment: self-cleavage, relative activity (ratio to wild type); higher = more cleavage; in vitro, sequencing
How it was run: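 After error-prone PCR and barcoding, CPEB3 ribozyme mutant libraries were transcribed with T7 RNA polymerase at 37°C for 5 hours, then given 15 min with DNase I before an EDTA stop, and they cleaved during both steps. Reverse transcription with template switching preceded Illumina sequencing. Relative activity divides a variant's cleaved/total read fraction by the unmutated ribozyme's. At least 5 reads were required per variant, and three batches were averaged.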
C4U A18U U25A A35G A47G U49C showed a self-cleavage of 0.07.
With A5G A15G A18G A28U A57G the self-cleavage was 0.43.
For A5G A15U A20G U78C, the self-cleavage was 0.5.
A3U G8A U26C U48A A56U U66C showed a self-cleavage of 0.16.
In the case of C4U G8U A18G U69C, the self-cleavage is reported as 0.07.
In the case of C4A U51C U60C, the self-cleavage is reported as 0.63.
For A3U A18U U54A G63A U76C, the self-cleavage was 0.49.
Variant C4A G33U U67A has a self-cleavage of 0.22.
Work on A5C U26C U31A yielded a self-cleavage of 0.25.
Variant C4U A13G A57G has a self-cleavage of 0.79.
A3U U51C G52U showed a self-cleavage of 1.06.
Variant A5G A13G A28U U51A C62U U80C has a self-cleavage of 0.09.
Variant A3U A20U A47G has a self-cleavage of 0.49.
For A5G A13C A28G, the self-cleavage was 0.44.
Work on A3U A20G C59A U72G yielded a self-cleavage of 0.27.
With A5G A13G U69C the self-cleavage was 0.07.
In the case of A3U U31C C34U U48C U78C, the self-cleavage is reported as 0.
Variant C4U G9U A20U has a self-cleavage of 0.08.
Work on A5C A15C U41C U54G A57G A65G yielded a self-cleavage of 0.11.
In the case of A5C C17U C23U A65U, the self-cleavage is reported as 0.22.
In the case of A3U A20G U31C A35U A45G G52U A65G, the self-cleavage is reported as 0.2.
A5C A20U A28C A47U A56G U69A gave a self-cleavage of 0.12.
Work on A5C A45G G63U U78C yielded a self-cleavage of 0.83.
A3U A20G A28G C38A U41C A56G U67A gave a self-cleavage of 0.06.
A5G A15G A45G gave a self-cleavage of 0.46.
Variant C4U U31C A45G has a self-cleavage of 0.65.
A3U U54C G63A A65G A77C gave a self-cleavage of 0.54.
For A3U A20U C68G U74A, the self-cleavage was 0.29.
Work on A3U A15U A57G A64G yielded a self-cleavage of 0.59.
A5G A15G U26C C38A A47G U69C U78C showed a self-cleavage of 0.07.
For A3U U43A A45G A64G, the self-cleavage was 0.4.
Variant A3U U25C U26C A45G A77U has a self-cleavage of 0.1.
For A3U A18G A35G A57G A65G A75G, the self-cleavage was 0.8.
C4U A65G U80C showed a self-cleavage of 0.72.
Variant A5G A15G G53U has a self-cleavage of 0.55.
A3U C11G C27G A47U A57U gave a self-cleavage of 0.22.
C4U C37U A65G U67C U69A gave a self-cleavage of 0.15.
Variant A5C A28G U69C A75G has a self-cleavage of 0.23.
A3U G22U A28G A35U U41A A56U U66C showed a self-cleavage of 0.3.
Variant C4U U26C A64G U80C has a self-cleavage of 0.65.
Work on A3U A13U U25C A64U yielded a self-cleavage of 0.12.
Variant A3U U31C C40U has a self-cleavage of 1.11.
A3U A20U U49C U60C G63A gave a self-cleavage of 0.08.
C4U A15G U72A U78C gave a self-cleavage of 0.54.
Variant A3U G8A G63A has a self-cleavage of 0.53.
Variant A5G A13G C62U G73A has a self-cleavage of 0.37.
Variant A5G A13G G24A U41A A57G U66A has a self-cleavage of 0.04.
A3U A18G A28G A57G A65G showed a self-cleavage of 0.26.
A3U A13U U26C U54C G55C U58C U72C showed a self-cleavage of 0.19.
With A5G A13G A45G A65G the self-cleavage was 0.43.
A3U U43A G46U A56G showed a self-cleavage of 0.25.
For A3U A15G A77U, the self-cleavage was 0.98.
Work on A5C U25C U67C yielded a self-cleavage of 0.15.
A3U U43A A45G G63U U69C gave a self-cleavage of 0.29.
In the case of A5C A57G U58A, the self-cleavage is reported as 0.18.
In the case of A3U U26A U31C U49C, the self-cleavage is reported as 0.19.
A5G A13G C34U U80C showed a self-cleavage of 0.48.
In the case of C4A A13G A18G U25G A45U A64G, the self-cleavage is reported as 0.05.
In the case of A5G A13G A21G, the self-cleavage is reported as 0.6.
In the case of C4U G7A U31C A65G U67C U72G, the self-cleavage is reported as 0.
In the case of C4U C34A U41A A64G U78C, the self-cleavage is reported as 0.14.
Work on A3U G9A A15G U67A yielded a self-cleavage of 0.09.
A3U C37G U67C gave a self-cleavage of 0.13.
With A3U G7U U54C the self-cleavage was 0.29.
For C4U U60A U76A, the self-cleavage was 0.94.
A5G A13G U51A U72A showed a self-cleavage of 0.33.
With A3U U51G A64G A75G the self-cleavage was 0.8.
Work on A5C A13U U25C U41A U51A U72A U78C yielded a self-cleavage of 0.08.
C4U A28U U67C showed a self-cleavage of 0.47.
A3U G7A A56G C71A gave a self-cleavage of 0.08.
In the case of A5G A18G A21C U48C, the self-cleavage is reported as 0.53.
For A3U C32A C38G U66C, the self-cleavage was 0.47.
A3U G19U U41C G61A G63A U69G C79U gave a self-cleavage of 0.22.
With A3U A15G C27A C38A G42A A45G the self-cleavage was 0.11.
Work on A3U G10A A47C A75G yielded a self-cleavage of 0.05.
With A3U U25C G30A the self-cleavage was 0.23.
A5G A15G C37U G55C A75U showed a self-cleavage of 0.19.
C4A G9A G22U U49C A56G U66C showed a self-cleavage of 0.15.
For A3U A21U U72A A75G, the self-cleavage was 0.53.
A5C A20G U72A showed a self-cleavage of 0.32.
With C4A G19C A28U U51A the self-cleavage was 0.08.
A5C U31A A56U U72C U74C gave a self-cleavage of 0.31.
A5G A15G C38U A64U showed a self-cleavage of 0.08.
A3U A20C U26C gave a self-cleavage of 0.56.
For C4U A35U U43C A57G A77G, the self-cleavage was 0.24.
A3U A18G G22U U48C U72C U74C gave a self-cleavage of 0.17.
For A5C G6C U66C U67C C68U, the self-cleavage was 0.11.
Variant C4A C11U A20U U25C C32A C62A U72A has a self-cleavage of 0.05.
A5G A13G C79U showed a self-cleavage of 0.79.
In the case of A5C A35U C40G U54C, the self-cleavage is reported as 0.33.
C4U C23U C38A U41A U51C showed a self-cleavage of 0.14.
For C4U U25C A45U A56G U67C, the self-cleavage was 0.1.
Variant A3U A20U A35U C44A A45U U69A has a self-cleavage of 0.08.
C4U A18U C27A U54A G70C showed a self-cleavage of 0.33.
Work on C4A A15G A56U A77G yielded a self-cleavage of 0.62.
With A3U G7U G30U C62A U80C the self-cleavage was 0.34.
For C4U C29U C34G, the self-cleavage was 0.17.
In the case of C4U A13U U72C, the self-cleavage is reported as 1.08.
With A5C A13G A18U U26A U41C the self-cleavage was 0.63.
A5C G22A U26C U41C U69C G73A showed a self-cleavage of 0.01.
Work on A3U C4A C40U yielded a self-cleavage of 0.71.
C4A A13G A15G U66C gave a self-cleavage of 0.06.
For C4G A15U G63A A77C, the self-cleavage was 0.64.
In the case of A3U C40U U43A U58C U69C, the self-cleavage is reported as 0.32.
A5G A13G A56G gave a self-cleavage of 0.85.
In the case of A5C G6U C12A A65G G70A U72A, the self-cleavage is reported as 0.24.
For A3U A20G A21U C81U, the self-cleavage was 0.21.
A3U U43A U49C gave a self-cleavage of 0.56.
C4U A13U G19C showed a self-cleavage of 0.47.
In the case of A3U U60A U67C, the self-cleavage is reported as 0.31.
For A3U U41C A64G, the self-cleavage was 0.89.
With A3U C17G U26C A45G the self-cleavage was 0.09.
Work on A3U A21G A35G A64U U66C yielded a self-cleavage of 0.84.
With A3U U25A A47G A56U A75U the self-cleavage was 0.16.
In the case of A5C G6C U41A G52A, the self-cleavage is reported as 0.68.
Variant C4A G36U A45G U49C A65U has a self-cleavage of 0.12.
For A3U A20C A21C U31C U49C, the self-cleavage was 0.07.
Work on A5G A15U A21G yielded a self-cleavage of 0.22.
With A3U A13U G42A U72C the self-cleavage was 0.26.
A3U A47G C71U showed a self-cleavage of 0.44.
A3U U31A A56G U69A gave a self-cleavage of 0.46.
A3U G10U U58C gave a self-cleavage of 0.07.
Variant C4U A28G U80A has a self-cleavage of 0.94.
In the case of C4U U25C U51G, the self-cleavage is reported as 0.59.
C4U A5U U58C C71U showed a self-cleavage of 0.57.
Variant C4U U69A U72A has a self-cleavage of 0.32.
In the case of A3U G22A U41A U48A A65G U76A, the self-cleavage is reported as 0.39.
A5C A35G C38U U43A gave a self-cleavage of 1.25.
Variant A5C A13U A28G C40U A57G U60A U78A has a self-cleavage of 0.12.
In the case of A5G A13G A47G U54G U74A, the self-cleavage is reported as 0.18.
A3U A28G A45G showed a self-cleavage of 0.53.
For A5C C37A A57U U78C, the self-cleavage was 0.18.
For A3U U48C U67C, the self-cleavage was 0.13.
Work on C4A A15G A28U U60A U69C yielded a self-cleavage of 0.1.
Variant A5G A13G A28U U51A U67A U80C has a self-cleavage of 0.27.
Variant A5G A13U A35G U69A U78C has a self-cleavage of 1.01.
In the case of A5G A13G A28U A35G U51A U54A U80C, the self-cleavage is reported as 0.13.
Variant A3U A28G A47G has a self-cleavage of 0.5.
A3U G10U U41A A57G showed a self-cleavage of 0.06.
Variant A5C A15G A18G C23U A56G U78A has a self-cleavage of 0.12.
C4U A13U C32A U51A U67A showed a self-cleavage of 0.29.
For A3U C17G U26C, the self-cleavage was 0.31.
A3U U48C U69C U72C showed a self-cleavage of 0.28.
For A3U C4U A15C, the self-cleavage was 1.
A3U A21C U25C A35U showed a self-cleavage of 0.15.
In the case of A5C A13C C23U, the self-cleavage is reported as 0.15.
For A5G A15U U25C U43C C50U, the self-cleavage was 0.1.
A3U A20G A35U U43A U60C showed a self-cleavage of 0.1.
A3U U25A U31A gave a self-cleavage of 0.31.
Work on A3U A20G C29U A45U U54C U69G yielded a self-cleavage of 0.7.
In the case of A5C A35G C59A U69G U78C, the self-cleavage is reported as 0.74.
For A5G A15U C34A C79A, the self-cleavage was 0.14.
For C4U G19U A35U C50A U60A, the self-cleavage was 0.11.
A5C A20U A64G showed a self-cleavage of 0.19.
In the case of A5G A13G A64G, the self-cleavage is reported as 0.38.
For A3U C23A U31C U43C U49A, the self-cleavage was 0.1.
With A3U U43A U51C U69C the self-cleavage was 0.71.
Variant A5G A13G A18U A65G U76G has a self-cleavage of 0.1.
A3U U25C U43C U49C U60A A65G U80C showed a self-cleavage of 0.22.
For A3U U25C U51C, the self-cleavage was 0.11.
In the case of A5C A21G U31C U41C U43C A65G, the self-cleavage is reported as 0.26.
Variant A5C A15G A18U U43A A64G has a self-cleavage of 0.63.
A3U U25A A35G gave a self-cleavage of 0.14.
With A3U C23U A28C the self-cleavage was 0.4.
A3U U41A U49A A57G U60C U69A showed a self-cleavage of 0.13.
A3U A45U U51A gave a self-cleavage of 0.38.
For A3U U43C U49A A57G U80G, the self-cleavage was 0.26.
